The values that follow are results of earlier work, collected in paper PMC11006913.

The other results are listed elsewhere or left out.

Data set [1] addresses PROP1 R112Q (Homo sapiens) (UniProt O75360). To be noted: PBM; conditions not shown; double strand, one strand shown; scale: upbm affinity estimate (log intensity, higher = more binding, comparable within an allelic series).
For data set [2], the target named is PROP1 R99Q (Homo sapiens) (UniProt O75360). To be noted: PBM; conditions not shown; double strand, one strand shown; scale: upbm affinity estimate (log intensity, higher = more binding, comparable within an allelic series).

As to CCTACCCC [8-mer CCTACCCC], the binding signal in data set [1] and in data set [2] was 10.9 throughout.

Regarding AGGTCCCC [8-mer AGGTCCCC], the values for the binding signal in data set [1] and in data set [2] were 10.8 and 10.9, respectively.

As to GAGTTAAA [8-mer GAGTTAAA], in data set [2], the binding signal was 11.3.

For AAGGCCCG [8-mer AAGGCCCG], the binding signal in data set [1] and in data set [2] was 10.8 each time.
